According to ChEMBL document CHEMBL1201862, “PubChem BioAssay data set” (2004):
Calls of active or inactive are those of the source.

How the values were obtained:
cells = assay type: functional, cell-based
Vero = experiment: cells; assay type: functional; settings: Chlorocebus sabaeus
[1] = target: T1, Nuclear receptor subfamily 0 group B member 1 (Homo sapiens, UniProt P51843); assay type: functional, cell-based;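 also: HEK293T cells transfected with SF-1 and DAX-1 plus StAR promoter luciferase reporter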
T1 sequence (P51843 whole entry): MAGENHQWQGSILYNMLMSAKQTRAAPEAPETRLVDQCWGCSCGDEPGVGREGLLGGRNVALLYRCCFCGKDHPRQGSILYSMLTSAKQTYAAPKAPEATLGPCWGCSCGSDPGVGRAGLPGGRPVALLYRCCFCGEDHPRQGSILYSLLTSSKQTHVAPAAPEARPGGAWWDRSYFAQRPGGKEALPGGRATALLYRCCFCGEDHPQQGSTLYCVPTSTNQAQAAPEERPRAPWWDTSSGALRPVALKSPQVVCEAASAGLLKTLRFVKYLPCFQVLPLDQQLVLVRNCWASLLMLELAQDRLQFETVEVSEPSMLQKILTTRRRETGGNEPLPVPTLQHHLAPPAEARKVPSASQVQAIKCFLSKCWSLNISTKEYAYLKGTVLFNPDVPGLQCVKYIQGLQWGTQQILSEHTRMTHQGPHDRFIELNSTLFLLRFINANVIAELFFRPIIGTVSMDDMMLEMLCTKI

## COc1cc2c(c(OC)c1OC)-c1ccc(OC)c(=O)cc1C(N)CC2 (stereo not drawn)
cells
  IC50: inactive: > 67.6 µM
Vero
  CC50: active: 0.45 µM
[1]
  IC50: inactive: > 67.6 µM
